Results from PubChem BioAssay AID588855 (National Center for Advancing Translational Sciences (NCATS), 2011).
Values joined by “and” are separate entries in the source; they are usually repeats but may differ in a detail not shown here. Equal entries are not always repeated. Out of some 410,000 compounds screened, about 5,000 (1.2%) were called active. The inconclusive results got no clear call from the source; some entries with a clear call stand among them for comparison. Calls follow the shape of the dose curve; as a rule, active = well fitted inhibition curve with a large enough effect; inconclusive = small, poorly fitted or top-dose-only effect; inactive = no such curve, though single readings can be large or run the other way. A potency beside an inconclusive call is a rough fit, not a confirmed value.

test: qHTS for Inhibitors of TGF-b; settings: HepG2 CAGA-GFP TGF-b/SMAD3 reporter, GFP fluorescence, 18 h, TGF-beta stimulated, 500 pg/mL final; series mostly up to 46.1 µM; also: nearly all actives have a fitted effect of over 65% in size
Outline: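 HEPG2 CAGA-GFP cells (1000/well, DMEM with 1% FBS) were pre-incubated 2 h at 37 degrees C, given compound by pin tool, then stimulated with TGF-beta at 500 pg/mL final for 18 h before per-cell GFP fluorescence imaging.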
Potency is read from the fitted curve at half-maximal effect; tags tell the direction and shape of the fitted curve.

SMILES	Potency
CC1=C(C(=O)N2CCOCC2)C(c2cccc(C)c2)NC(=S)N1 (stereo unspecified)	inconclusive: 6.31 µM [inhibitor, single point]
CC(=O)Oc1ccccc1Cn1c(C)c(C(=O)NCc2ccccc2C(F)(F)F)sc1=O	inconclusive: 22.4 µM [inhibitor, single point]
COc1ccc(CCNC(=O)COC(=O)c2ccc([N+](=O)[O-])o2)cc1	inactive
Cc1ccc(NS(=O)(=O)c2ccc3c(c2)NC(=O)CCS3)cc1C	inconclusive: 12.6 µM [inhibitor, single point] and inconclusive: 15.8 µM [inhibitor, single point]
O=C(N1CCOCC1)n1cnc2ccccc21	inconclusive: 14.1 µM [inhibitor, single point]
COc1cccc(-c2ncc3ccccc3c2COC(=O)c2cccc(Br)c2)c1	inconclusive: 25.1 µM [inhibitor, single point]
COc1ccc2nc(N3C(=O)CNC3=S)sc2c1	inconclusive: 7.94 µM [inhibitor, partial curve, poor fit]
C=CC[n+]1ccc2ccccc2c1C	inactive
Clc1ccc(NCc2cccnc2)cc1	inactive
N#Cc1c(NC(=O)CSc2nc(N)cc(=O)[nH]2)sc2c1CCCCCC2	inconclusive: 4.47 µM [inhibitor, partial curve]
Cc1ccc(C(=O)NNC(=O)C(C)Sc2nc(N)cc(N)n2)cc1 (stereo unspecified)	inconclusive: 3.55 µM [inhibitor, single point]
CN(Cc1ccccc1)c1nc(N)nc(Cl)c1C=O	inactive
C#CCCOC(=O)N1C2=NC(C(=O)OC)=C(C(=O)OC)[C@@H]3N(CC=C)c4ccccc4[C@]23C[C@H]1C(=O)OC	inconclusive: 6.31 µM [inhibitor, single point]
CNC(=O)N(O)C1N(/N=C/c2cc(Br)ccc2O)C(=S)SC1(C)C (stereo unspecified)	inconclusive: 35.5 µM [inhibitor, single point]
CN(Cc1ccccc1)S(=O)(=O)c1ccc(NC(=S)NC(=O)C2CCCCC2)cc1	active: 12.6 µM
Cc1cccc(-c2ncc(CN3CCN(C4CCCC4)C(CCO)C3)cn2)c1 (stereo unspecified)	inactive
CC(CCc1ccccc1)NC(=O)COC(=O)c1ccc(NC(=O)CC#N)cc1 (stereo unspecified)	inconclusive: 6.31 µM [inhibitor, single point]
O=C(Nc1ccccc1)c1cc([N+](=O)[O-])ccc1Cl	inactive
O=[N+]([O-])c1cc(/C=N/N2CCN(C3c4ccccc4-c4ccccc43)CC2)ccc1Cl	inactive
CCn1c(=O)c(C(=O)Nc2ccccc2C)c(O)c2ccccc21	inactive
N#Cc1nc(-c2ccc(COc3ccccc3)o2)oc1NCc1ccccc1	inconclusive: 15.8 µM [inhibitor, single point]
CC(C)Oc1ccc(C(CC(=O)N(C)CCC#N)c2ccc(F)cc2)cc1 (stereo unspecified)	inconclusive: 22.4 µM [inhibitor, single point]
Cc1ccc(CNC(=O)CSc2nc(=O)[nH]c3c2CCCC3)cc1	inconclusive: 6.31 µM [inhibitor, single point]
O=C(c1c[nH]c2ccccc12)C(Cl)c1ccccc1 (stereo unspecified)	inconclusive: 1.78 µM [inhibitor, partial curve, poor fit]

SMILES	Potency
CCCn1c(NC(=O)C2CCN(C(=O)c3ccccc3C)CC2)nc2ccccc21	inactive
CCC(O)c1cc2c(cc1NC(=O)c1cccc(Br)c1)OCCO2 (stereo unspecified)	inactive
CCOc1ccc(NCc2ccccc2OCc2cccc(F)c2)cc1	inconclusive: 20 µM [inhibitor, single point]
Cc1c(Cl)cc(-n2cnnn2)cc1[N+](=O)[O-]	inactive
O=C(Nc1ccn(Cc2ccccc2F)n1)c1ccc(COc2cc(Cl)ccc2Cl)o1	inconclusive: 15.8 µM [inhibitor, single point]
Cc1cccc(C2NC(=O)c3ccccc3N2)c1 (stereo unspecified)	inconclusive: 0.631 µM [inhibitor, full curve, poor fit]
Cc1cccc2cc(-c3ccccc3)c(-c3ccccc3)c[n+]12	inconclusive: 5.01 µM [inhibitor, full curve, poor fit]
O=C1CC(N2CCN(c3ccc(O)cc3)CC2)C(=O)N1Cc1cccs1 (stereo unspecified)	inactive
CC(C)(C)c1ccccc1OCC(O)CN1CCN(c2ccccn2)CC1 (stereo unspecified)	inconclusive: 20 µM [inhibitor, single point]
COc1ccc(CC(=O)NC(C)c2nnc(SCC(=O)c3ccc(Br)cc3)n2C)cc1 (stereo unspecified)	inconclusive: 35.5 µM [inhibitor, single point]
Cc1cccc(NS(=O)(=O)c2cccc3cccnc23)n1	inconclusive: 3.98 µM [inhibitor, single point]
NC(=O)C1=C[C@H](c2coc3ccccc3c2=O)C[C@H](OCc2ccc(CO)cc2)O1	inconclusive: 5.62 µM [inhibitor, single point]
CCCc1nnc(NC(=O)CCC(=O)Nc2ccc(Cl)cc2)s1	inactive
C/C(N)=C(/C#N)C(=O)CSc1nc2ccccc2c(=O)n1Cc1ccc(F)cc1	active: 11.2 µM
C=CCNC(=O)/C(C#N)=C/c1ccc(C)o1	inactive
CNC(=O)CSc1nc2ccccc2c(=O)n1-c1cc(OC)ccc1OC	inactive
C[C@H](CO)N1C[C@H](C)[C@@H](CN(C)S(=O)(=O)c2cn(C)cn2)Oc2c(NS(=O)(=O)c3ccccc3)cccc2C1=O	inactive
CCOc1ccc(C(C)C)cc1S(=O)(=O)N1CCN(C(=O)c2ccco2)CC1	inactive
N#CCCNS(=O)(=O)c1ccc(C(=O)OCC2CCCCC2)cc1	inconclusive: 31.6 µM [inhibitor, single point]
COc1cccc(OCCCn2ccnc2)c1	inconclusive: 11.2 µM [inhibitor, single point]
COc1ccc(C2C(=O)N(C3CCC(C)CC3)CC(=O)N2Cc2ccccc2Cl)cc1OC (stereo unspecified)	inactive
Cc1ccc(SC2CCN(C(=O)C3CCC(=O)N(C4CC4)C3)CC2)cc1 (stereo unspecified)	inconclusive: 35.5 µM [inhibitor, single point]
CC(=O)Nc1ccc(SC[C@H](Cc2ccccc2)N2CCN(CCc3ccccc3)CCC2=O)cc1	inconclusive: 14.1 µM [inhibitor, single point]
CCOC(=O)c1cccc(NC2c3ccccc3C(=O)N2Cc2ccco2)c1 (stereo unspecified)	inactive

SMILES	Potency
CCCn1c2ccccc2c2cnn(CC(=O)N3CCC(C(=O)OCC)CC3)c(=O)c21	inconclusive: 7.94 µM [inhibitor, partial curve, poor fit]
O=C1C=C(c2ccccc2)CC(/C=C/c2ccccc2)C1 (stereo unspecified)	inconclusive: 3.16 µM [inhibitor, single point]
CCc1ccc2c(c1)NC(=O)C2(C)Cc1ccccc1C#N (stereo unspecified)	inconclusive: 6.31 µM [inhibitor, single point]
Cc1cccc(-c2noc(-c3cccnc3NCc3ccco3)n2)c1	inactive
CN(C)S(=O)(=O)N1CCN(CC(O)COc2ccc(-c3ccccc3)cc2)CC1 (stereo unspecified)	inconclusive: 35.5 µM [inhibitor, single point]
COc1ccc(CNC(=O)CS(=O)(=O)Cc2nc(-c3cccc(OC)c3)oc2C)cc1	inactive
Cc1ccccc1-n1cc(-c2ccccc2)nc1SCC(=O)Nc1ccc(F)cc1	inconclusive: 6.31 µM [inhibitor, partial curve]
CCOC(=O)C1(Cc2ccccc2)CCN(Cc2cnn(-c3ccccc3)c2)CC1	inconclusive: 25.1 µM [inhibitor, single point]
COc1ccc(-n2c(=O)c3c4c(sc3n(Cc3cc(C)ccc3C)c2=O)CN(C(C)=O)CC4)c(OC)c1	inconclusive: 0.562 µM [inhibitor, full curve, poor fit]
CCOP(=O)(OCC)C(NC(=O)C(F)(F)F)c1ccccc1 (stereo unspecified)	inconclusive: 0.126 µM [inhibitor, full curve, poor fit]
CC(C)(C)c1ccccc1NC(=O)c1ccc2c(c1)SC1=NS(=O)(=O)CCN12	inactive
COC(=O)c1cc(COc2ccc3c4c(c(=O)oc3c2)CCCC4)c(C)o1	inconclusive: 35.5 µM [inhibitor, single point]
O=S(=O)(c1ccccc1)c1nc(Nc2cccc(O)c2)sc1Cl	inconclusive: 8.91 µM [inhibitor, partial curve]
O=C(N=C1SC2CS(=O)(=O)CC2N1c1ccc(F)cc1F)C1CC1 (stereo unspecified)	inactive
CCN1C/C(=C\c2cccc([N+](=O)[O-])c2)C(=O)/C(=C/c2cccc([N+](=O)[O-])c2)C1	inconclusive: 2.82 µM [inhibitor, partial curve, poor fit]
CC(=O)N1CCCc2cc(S(=O)(=O)N(C)CC(=O)Nc3ccc(C)cc3C)ccc21	inactive
C=CCn1c(C)cc(C(=O)CSc2nc3ccccc3o2)c1C	inactive
Cc1cccc(OCCSc2nc3ncnc(N)c3[nH]2)c1	inactive
Cc1ccc(S(=O)(=O)NC(=O)C2(C)CCN2C(=O)COc2ccc(Cl)cc2)nc1 (stereo unspecified)	inactive
Cc1ccc(-c2nc3ccc(Br)cn3c2Cc2cccc(Cl)c2)cc1	inconclusive: 22.4 µM [inhibitor, partial curve, poor fit]
CC1CCN(c2nn3c(=O)c(C(=O)NCc4ccc(Cl)cc4)cnc3s2)CC1	inconclusive: 0.355 µM [inhibitor, partial curve, poor fit]
C/C(=N\NC(=O)C1COc2ccccc2O1)c1ccccn1 (stereo unspecified)	inconclusive: 11.2 µM [inhibitor, partial curve]
Cc1cc(C)nc(SCC(=O)N/N=C/c2cccc([N+](=O)[O-])c2)n1	inactive
